Here are results for one molecule from PMC10412584, “Molecular reshaping of phage-displayed Interleukin-2 at beta chain receptor interface to obtain potent super-agonists with improved developability profiles” (Communications Biology, 2023).

The target of the assay is T1, recombinant fusion protein comprising human IL-2R beta subunit extracellular domain and mouse IgG2a Fc (human, UniProt P14784 27-240).
T1 construct: human IL-2 receptor beta subunit (CD122), extracellular domain; also called IL-2R beta/mFc; IL-2R beta ECD/mouse IgG2a Fc
T1 sequence (looked up): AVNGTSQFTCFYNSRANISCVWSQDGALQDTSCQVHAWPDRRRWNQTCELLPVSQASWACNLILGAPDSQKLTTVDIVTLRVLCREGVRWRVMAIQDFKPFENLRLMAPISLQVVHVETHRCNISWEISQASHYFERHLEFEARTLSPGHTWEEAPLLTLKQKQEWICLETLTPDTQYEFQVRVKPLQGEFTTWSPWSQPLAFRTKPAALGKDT
Kind of assay: ELISA; polyvinyl chloride plates coated with IL-2R beta ECD/mouse IgG2a Fc at 10 µg/mL in PBS; Fc-fusion proteins diluted in M-PBS, 1 h at RT; detected with anti-human IgG-HRP. To be noted: both partners purified.

B1: fusion protein containing I92L-hIL-2 (K35E, human IgG1 Fc) (Fc fusion)
chain: not shown
notes: human interleukin-2; the first two aa (Ala-Pro) are present in the Fc constructs; also called I92L-containing fusion protein; source: HEK-293T adapted to suspension, transient transfection, purified from supernatant (protein A)
In the case of B1, the binding result is given as “binds”.
